# In the antibiotic and cytotoxicity screens of Wong et al. (2023):
# This is one part of the list.
# How the values were obtained:
# HSkMC = human skeletal muscle cells; test: cytotoxicity call (relative viability < 0.9); settings: 10 µM
# HepG2 = test: cytotoxicity call (relative viability < 0.9); settings: 10 µM
# S. aureus RN4220 = test: growth inhibition call (relative growth <= 0.2); settings: 50 µM
Structure (SMILES),cytotoxicity call (HSkMC),cytotoxicity call (HepG2),growth inhibition call (S. aureus RN4220)
C[C@@H]1CCCCO[C@H](CN(C)C(=O)c2ccccc2)[C@H](C)CN([C@@H](C)CO)C(=O)c2cc(NC(=O)NC3CCCCC3)ccc2O1,inactive,inactive,inactive
Cc1ccc(S(=O)(=O)N(C)C[C@@H]2OCCCC[C@@H](C)Oc3ccc(NC(=O)Nc4ccc5c(c4)OCO5)cc3C(=O)N([C@@H](C)CO)C[C@@H]2C)cc1,inactive,inactive,inactive
CC(=O)OCC1=C(C(=O)[O-])N2C(=O)C(NC(=O)CSc3ccncc3)C2SC1.[Na+] (stereo not drawn),inactive,inactive,active
COC(=O)c1c2oc(c1C(=O)OC)C(=O)N[C@H](Cc1ccccc1)Cn1cc(nn1)CNC(=O)[C@@H](Cc1ccccc1)NC(=O)N[C@@H](COC(=O)NCCCCCC(=O)NO)CC2,inactive,inactive,inactive
CC[C@@]1(C)N[C@H](C(=O)O)CS1,inactive,inactive,inactive
COc1ccc2c3c([nH]c2c1)[C@@H](CO)N(C[C@]13CN(C1)C(=O)Cc1cccnc1)S(=O)(=O)c1ccc(cc1)C,inactive,inactive,inactive
Cc1noc(C)c1S(=O)(=O)Nc1ccc2c(c1)C(=O)N([C@H](C)CO)C[C@@H](C)[C@H](CN(C)C(=O)Nc1cccc3ccccc13)OCCCC[C@@H](C)O2,inactive,inactive,inactive
CO[C@H]1CN(C)C(=O)c2cc(NS(C)(=O)=O)ccc2OC[C@@H](C)N(C(=O)c2ccc3c(c2)OCO3)C[C@H]1C,inactive,inactive,inactive
COc1ccc(S(=O)(=O)N(C)C[C@@H]2Oc3ccc(NS(C)(=O)=O)cc3CC(=O)N([C@H](C)CO)C[C@H]2C)cc1,inactive,inactive,inactive
CC(C)(O)C#Cc1ccc([C@@H]2[C@@H](CO)N3CCCCN(S(C)(=O)=O)C[C@@H]23)cc1,inactive,inactive,inactive
COC(=O)/C=C/c1ccc(C(=O)NCC(=O)N[C@@H](CCC(=O)OC)C(=O)N[C@@H](CC(C)C)C(N)=O)cc1,inactive,inactive,inactive
COc1ccc2c3c(n(c2c1)C)[C@H](CO)N(C[C@]13CCN(CC1)C(=O)c1ccccc1F)C(=O)Nc1ccccc1F,inactive,inactive,inactive
C[C@@H]1CCCCO[C@H](CN(C)S(=O)(=O)c2ccc(F)cc2)[C@H](C)CN([C@@H](C)CO)C(=O)c2cc(NC(=O)Nc3cccc4ccccc34)ccc2O1,inactive,inactive,inactive
C[C@H]1CN([C@@H](C)CO)S(=O)(=O)c2ccc(C#Cc3ccccc3F)cc2O[C@H]1CN(C)CC1CC1,inactive,inactive,inactive
C[C@@H]1CN([C@H](C)CO)C(=O)c2cccc(NC(=O)c3cnccn3)c2O[C@H]1CN(C)C(=O)NC1CCCCC1,inactive,inactive,inactive
CC(COc1ccccc1)N(CCCl)Cc1ccccc1.Cl (stereo not drawn),inactive,inactive,inactive
CC(=O)N1CCO[C@H]2CCN(C(=O)c3ccn(C)n3)C[C@H]21,inactive,inactive,inactive
CO[C@H]1CN(C)C(=O)c2ccc(NS(=O)(=O)CC(F)(F)F)cc2OC[C@@H](C)N(Cc2nccs2)C[C@@H]1C,inactive,inactive,inactive
CC(C)NC(=O)N(C)C[C@H]1OCCCC[C@H](C)Oc2ccc(NC(=O)Nc3ccc(C(F)(F)F)cc3)cc2C(=O)N([C@H](C)CO)C[C@H]1C,inactive,inactive,inactive

Structure (SMILES),cytotoxicity call (HSkMC),cytotoxicity call (HepG2),growth inhibition call (S. aureus RN4220)
CC(=O)O[C@H]1C=C[C@@H](O)C1,inactive,inactive,inactive
C[C@@H]1CN([C@H](C)CO)C(=O)Cc2cc(NC(=O)CCCCCC(=O)Nc3ccccc3N)ccc2O[C@H]1CN(C)S(C)(=O)=O,inactive,inactive,inactive
C[C@H](CO)N1C[C@H](C)[C@H](CN(C)Cc2ccccc2)OCCCC[C@H](C)Oc2ccc(NC(=O)Nc3cccc4ccccc34)cc2C1=O,inactive,inactive,inactive
C[C@@H]1CN([C@@H](C)CO)C(=O)Cc2cc(NC(=O)C3CCCCC3)ccc2O[C@@H]1CN(C)Cc1ccc(C(F)(F)F)cc1,active,active,inactive
COc1ccc(S(=O)(=O)N(C)C[C@@H]2OCCCC[C@@H](C)Oc3ccc(NC(=O)Nc4ccc5c(c4)OCO5)cc3C(=O)N([C@@H](C)CO)C[C@@H]2C)cc1,inactive,inactive,inactive
CC(O)CN(CCN(CC(C)O)CC(C)O)CC(C)O (stereo not drawn),inactive,inactive,inactive
Cc1noc(C)c1S(=O)(=O)Nc1ccc2c(c1)C(=O)N([C@H](C)CO)C[C@H](C)[C@@H](CN(C)C(=O)Nc1ccc(F)cc1)OCCCC[C@H](C)O2,inactive,inactive,inactive
CCOC(=O)c1cc(C(=O)OCC)n(C)n1,inactive,inactive,inactive
C[C@@H]1CCCCO[C@@H](CN(C)Cc2ccccc2)[C@H](C)CN([C@@H](C)CO)C(=O)c2cc(NS(=O)(=O)c3ccccc3)ccc2O1,inactive,inactive,inactive
CNC(=O)C[C@H]1CC[C@H]2[C@@H](COC[C@H](O)CN2C(=O)Nc2cccc(OC)c2)O1,inactive,inactive,inactive
C[C@@H]1CCCCO[C@H](CN(C)C(=O)NC2CCCCC2)[C@H](C)CN([C@@H](C)CO)C(=O)c2cc(NC(=O)Nc3ccc4c(c3)OCO4)ccc2O1,inactive,inactive,inactive
C[C@@H]1CCCCO[C@H](CN(C)Cc2ccncc2)[C@H](C)CN([C@@H](C)CO)C(=O)c2cc(NC(=O)Cc3ccccc3)ccc2O1,inactive,inactive,inactive
C[C@@H]1CN([C@H](C)CO)S(=O)(=O)c2ccc(C3=CCCCC3)cc2O[C@@H]1CN(C)C(=O)C1CCOCC1,inactive,inactive,inactive
COc1ccc(S(=O)(=O)N(C)C[C@H]2OCCCC[C@H](C)Oc3ccc(NC(=O)Nc4ccc5c(c4)OCO5)cc3C(=O)N([C@@H](C)CO)C[C@@H]2C)cc1,inactive,inactive,inactive
C[C@H]1CN([C@@H](C)CO)C(=O)c2cccc(NC(=O)C3CCOCC3)c2O[C@@H]1CN(C)Cc1ccccc1,inactive,inactive,inactive
COc1ccc2c(-c3ccc(Cl)cc3)c(C)oc2c1,inactive,active,inactive
C[C@@H]1CN([C@@H](C)CO)S(=O)(=O)c2ccc(C#CC3(O)CCCC3)cc2O[C@@H]1CN(C)C(=O)c1ccccc1,inactive,inactive,inactive
COc1ccc(S(=O)(=O)N(C)C[C@@H]2Oc3c(NC(=O)C4CCOCC4)cccc3C(=O)N([C@@H](C)CO)C[C@H]2C)cc1,inactive,inactive,inactive
COCC(=O)Nc1ccc2c(c1)C(=O)N(C)[C@H]1CC[C@@H](CC(=O)NCc3ccc(OC)cc3)O[C@@H]1CO2,inactive,inactive,inactive

Structure (SMILES),cytotoxicity call (HSkMC),cytotoxicity call (HepG2),growth inhibition call (S. aureus RN4220)
Cn1c(=O)c2c(ncn2CC(=O)NS(=O)(=O)c2ccccc2)n(C)c1=O,inactive,inactive,inactive
O=C(C[C@H]1C=C[C@H](NC(=O)Nc2ccc3c(c2)OCO3)[C@H](CO)O1)NCCCN1CCOCC1,inactive,inactive,inactive
O=C(O)C1(O)CC(O)C(O)C(O)C1 (stereo not drawn),inactive,inactive,inactive
Nc1nc(N)c2nc(-c3ccccc3)c(N)nc2n1,inactive,inactive,inactive
C[C@@H]1CN([C@@H](C)CO)C(=O)c2cc(NC(=O)Nc3ccc(C(F)(F)F)cc3)ccc2O[C@H]1CN(C)Cc1ccc(Oc2ccccc2)cc1,active,active,inactive
Cn1c(=O)n2n(c1=O)[C@H](C1CC1)C=C1CN3[C@@H]([C@H](Cc4ccccc4)OC(=O)[C@@H]3Cc3ccc(N=[N+]=[N-])cc3)[C@@H]12,inactive,inactive,inactive
CCS(=O)(=O)N1C[C@]2(C1)CN([C@H](CO)c1[nH]c3cc(ccc3c12)OC)S(=O)(=O)c1ccc(cc1)C,inactive,inactive,inactive
O=C(C[C@H]1CC[C@@H]2[C@H](COC[C@@H](O)CN2S(=O)(=O)c2ccccc2)O1)N[C@H]1CCN(Cc2ccccc2)C1,inactive,inactive,inactive
CC(=O)N1CCS(=O)(=O)[C@H]2CCN(S(=O)(=O)Cc3ccccc3)CC[C@@H]21,inactive,inactive,inactive
Cc1ccc(S(=O)(=O)N(C)C[C@H]2Oc3ncc(C#CCC(C)C)cc3C(=O)N([C@H](C)CO)C[C@@H]2C)cc1,inactive,inactive,inactive
C=CC(=O)N1C[C@@H]2CC[C@H](O)[C@@H]2C1,inactive,inactive,inactive
COc1ccc(NC(=O)Nc2ccc3c(c2)C(=O)N([C@H](C)CO)C[C@@H](C)[C@H](CN(C)C(=O)c2ccccc2)OCCCC[C@@H](C)O3)cc1,inactive,inactive,inactive
Cc1ccc(S(=O)(=O)N2C[C@H](O)COC[C@H]3O[C@H](CC(=O)NCCCN(C)C)CC[C@@H]32)cc1,inactive,inactive,inactive
CCN1C(=O)CN(CC(=O)O)C1=O,inactive,inactive,inactive
C[C@@H]1CCCCO[C@@H](CN(C)CC2CCCCC2)[C@H](C)CN([C@@H](C)CO)C(=O)c2cc(NS(=O)(=O)c3ccccc3)ccc2O1,inactive,inactive,inactive
Cc1noc(C)c1S(=O)(=O)Nc1ccc2c(c1)C(=O)N([C@@H](C)CO)C[C@H](C)[C@@H](CN(C)Cc1ccccc1)O2,inactive,inactive,inactive
C[C@@H]1CN([C@H](C)CO)C(=O)c2cccc(NC(=O)c3ccncc3)c2O[C@@H]1CN(C)Cc1ccc2c(c1)OCO2,inactive,inactive,inactive
Cc1ccc(S(=O)(=O)N(C)C[C@@H]2Oc3c(NC(=O)c4cc(C)nn4C)cccc3C(=O)N([C@@H](C)CO)C[C@@H]2C)cc1,inactive,inactive,inactive
